From PubChem BioAssay (NCATS)
The shares of active, inactive and inconclusive entries below differ from those in the screen. For part of these data: Where the call is inconclusive, the potency comes from a doubtful curve fit. The source made the active and inactive calls. Unless noted, calls follow the shape of the dose curve; as a rule, active = well fitted curve in the direction sought with a large enough effect; inconclusive = small, poorly fitted or top-dose-only effect, or another doubt; inactive = no such curve, though single readings can be large; an effect the other way counts as inactive or inconclusive.

Legend:
[1] = High Content Imaging Cell-Based qHTS for Inhibitors of the mTORC1 Signaling Pathway in MEF Cells (AID 2667)
How it was run: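 Tsc2-/-, p53-/- MEFs stably re-expressing WT Tsc2, grown in DMEM + 10% FBS, were treated with compounds for 24 hrs at 37 degree Celsius, fixed, and stained with Alexa-488 phospho-rpS6 Ser235/236 antibody plus Hoechst; results given as % positive cells.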

[2] = Cytometry Cell-Based qHTS for Inhibitors of the mTORC1 Signaling Pathway in MEF cells (AID 2668)
How it was run: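 Phospho-rpS6 (Ser235/236) immunofluorescence over PI signal, scored as % positive cells using thresholds from 7.5 nM rapamycin and DMSO wells, after 24 h compound exposure of WT-Tsc2-rescued Tsc2-/-, p53-/- MEFs. PI cell count recorded for viability.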

[3] = target: DNA polymerase III PolC-type (Bacillus subtilis (strain 168)) (UniProt P13267); experiment: qHTS Validation Assay for the Inhibitors of DNA Replication in Gram-Positive Bacteria (AID 485295)
How it was run: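 Double-stranded DNA product detected by PicoGreen fluorescence after EDTA quench. Compound incubated with B. subtilis holoenzyme (PolC, beta subunit, SSB, primase) before substrate addition; primed replication of M13Gori with dNTPs and NTPs at room temperature; DMSO defines 0% inhibition.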

[4] = Validation screen for inhibitors of Lassa infection (AID 463096; calls by dose curve)
[5] = Validation screen for small molecules that induce DNA re-replication in MCF 10A normal breast cells (AID 463097); also: nearly all actives have a fitted effect of over 60% in size
How it was run: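 Read-out is Hoechst total nuclear intensity by fluorescence scanning imager, flagging increased high-DNA-content nuclei. Compounds were incubated with MCF 10A cells for 48 hr (37 C, 5% CO2) before 40 min staining.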

[6] = qHTS Assay for Inhibitors of Fructose-1,6-bisphosphate Aldolase from Giardia Lamblia: Giardia lamblia growth inhibition (AID 2785); settings: Giardia lamblia trophozoite growth inhibition; also: nearly all actives have a fitted effect of over 70% in size
How it was run: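 Whole-parasite growth test: Giardia WB trophozoites in TYI-S-33 (pH 7.0), 100 per well, incubated 48 h at 37C with compound. ATP content was read by ATPlite luminescence.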

[7] = qHTS Assay for Inhibitors of Fructose-1,6-bisphosphate Aldolase from Giardia Lamblia: Mammalian cellular toxicity (AID 2786); settings: mammalian cell viability counter-screen;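 also: compound exposure lasted 48 h before reading; nearly all actives have a fitted effect of over 60% in size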
Description: NIH Chemical Genomics Center [NCGC]
NIH Molecular Libraries Probe Production centers Network [MLPCN]
Assay Provider: Osnat Herzberg, University of Maryland
The objective of this project is to obtain compounds that inhibit Giardia lamblia growth. G. lamblia is a human pathogen which afflicts impoverished nations; it is the most common cause of outbreaks of diarrhea in the United States. During the course of our study of potential drug targets in Giardia, we have identified the Class II (Zn2+ functions in electrophilic catalysis) fructose-1,6-bisphosphate aldolase (FBPA) as an excellent candidate for drug targeting. FBPA is a key glycolytic pathway enzyme, essential for G. lamblia survival. […]
A glyceraldehyde-3-phosphate dehydrogenase/triose phosphate isomerase/NAD/arsenate coupled assay was adapted to the 1536-well HTP format for use in the primary screen. This was done by coupling it to a diaphorase/resazurin/resorufin reaction that can be monitored by fluorescence (excitation, 544 nm; emission, 590 nm). Compounds identified in this screen will be further evaluated by coupling the glycerol-3-phosphate/triose phosphate isomerase/NADH assay to a phenazine methosulfate/tetranitroblue tetrazolium color reaction. […]

[8] = target: Fructose-bisphosphate aldolase (Giardia intestinalis (strain ATCC 50803 / WB clone C6)) (UniProt A8B2U2); experiment: qHTS Assay for Inhibitors of Fructose-1,6-bisphosphate Aldolase from Giardia Lamblia: Primary screen confirmation (AID 2787); also: nearly all actives have a fitted effect of over 45% in size
How it was run: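 FBPA (40 nM in enzyme reagent, with 30 uM ZnCl2) was preincubated 10 min at RT with compound up to 57.5 uM final. Substrate plus coupled detection system was then added, and fluorescence (525/598 nm) was read after 20 min at RT.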

[9] = target: Fructose-bisphosphate aldolase A (Oryctolagus cuniculus) (UniProt P00883); experiment: qHTS Assay for Inhibitors of Fructose-1,6-bisphosphate Aldolase from Giardia Lamblia: Rabbit FBPA Selectivity (AID 2794); settings: Rabbit muscle FBPA enzyme inhibition, selectivity counter-screen; also: nearly all actives have a fitted effect of over 60% in size
How it was run: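 Cpd up to 57.5 uM final + coupling enzyme reagent, 10 min RT; add substrate/coupling system/AmpLite Red; 20 min RT; read fluor. 525/598 nm. Rabbit FBPA.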

[10] = target: Ubiquitin carboxyl-terminal hydrolase 2 (Homo sapiens) (UniProt O75604); experiment: qHTS Validation Assay for Inhibitors of Ubiquitin-specific Protease USP2a Using CHOP2 as the Reporter (AID 463106); settings: USP2a cleavage of CHOP2 reporter, enzymatic
How it was run: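 Readout was coupled fluorescence (Ex 485/Em 531 nm), read 60 min after adding 25 nM final Ub-CHOP2 and 25 nM reporter substrate. Beforehand, 10 nM final USP2 core had 30 min at RT with compound in pH 8.0 buffer. Curves were fitted after normalization to NEM and flagged for artifacts using time-zero reads.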
Potency is read from the fitted curve at half-maximal effect; tags tell the direction and shape of the fitted curve or compound fluorescence and quenching.

Sequence of UniProt P13267 (P13267 whole entry, looked up): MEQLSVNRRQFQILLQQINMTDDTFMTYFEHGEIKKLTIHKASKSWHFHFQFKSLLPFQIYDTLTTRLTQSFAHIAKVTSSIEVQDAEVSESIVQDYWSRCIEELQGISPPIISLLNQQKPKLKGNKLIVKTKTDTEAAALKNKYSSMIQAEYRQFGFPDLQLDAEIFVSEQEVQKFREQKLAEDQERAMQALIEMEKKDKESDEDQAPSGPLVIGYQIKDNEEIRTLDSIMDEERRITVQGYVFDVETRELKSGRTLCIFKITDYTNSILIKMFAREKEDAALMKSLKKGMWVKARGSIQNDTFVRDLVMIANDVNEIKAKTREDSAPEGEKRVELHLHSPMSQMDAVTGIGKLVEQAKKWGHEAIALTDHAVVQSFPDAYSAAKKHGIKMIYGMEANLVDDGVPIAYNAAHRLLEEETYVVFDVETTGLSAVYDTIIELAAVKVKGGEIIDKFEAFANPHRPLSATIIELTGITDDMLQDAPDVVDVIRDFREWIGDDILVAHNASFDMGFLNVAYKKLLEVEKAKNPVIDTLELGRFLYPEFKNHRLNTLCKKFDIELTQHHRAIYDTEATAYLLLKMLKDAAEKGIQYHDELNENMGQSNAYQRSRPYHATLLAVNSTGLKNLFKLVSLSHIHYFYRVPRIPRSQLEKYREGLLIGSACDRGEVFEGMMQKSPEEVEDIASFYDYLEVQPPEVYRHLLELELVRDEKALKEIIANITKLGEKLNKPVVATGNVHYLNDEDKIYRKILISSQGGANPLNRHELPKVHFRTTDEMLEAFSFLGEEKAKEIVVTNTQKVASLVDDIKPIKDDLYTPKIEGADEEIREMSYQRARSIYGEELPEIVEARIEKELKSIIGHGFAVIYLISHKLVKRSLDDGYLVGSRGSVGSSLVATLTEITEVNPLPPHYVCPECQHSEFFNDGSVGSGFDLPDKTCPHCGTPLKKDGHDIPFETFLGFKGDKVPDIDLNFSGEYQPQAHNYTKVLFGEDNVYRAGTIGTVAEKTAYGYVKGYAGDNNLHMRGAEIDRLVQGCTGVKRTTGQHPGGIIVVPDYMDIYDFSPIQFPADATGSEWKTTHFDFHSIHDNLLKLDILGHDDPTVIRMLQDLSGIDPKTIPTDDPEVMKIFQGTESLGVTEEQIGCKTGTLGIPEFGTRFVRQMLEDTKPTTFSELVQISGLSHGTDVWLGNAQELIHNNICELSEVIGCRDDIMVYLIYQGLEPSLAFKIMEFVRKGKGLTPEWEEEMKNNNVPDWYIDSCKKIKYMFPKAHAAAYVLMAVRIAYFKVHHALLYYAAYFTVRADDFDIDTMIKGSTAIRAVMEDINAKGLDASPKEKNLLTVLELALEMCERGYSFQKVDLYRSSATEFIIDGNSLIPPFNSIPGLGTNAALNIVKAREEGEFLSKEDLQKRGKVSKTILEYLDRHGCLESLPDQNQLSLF
Sequence of UniProt A8B2U2 (A8B2U2 whole entry, looked up): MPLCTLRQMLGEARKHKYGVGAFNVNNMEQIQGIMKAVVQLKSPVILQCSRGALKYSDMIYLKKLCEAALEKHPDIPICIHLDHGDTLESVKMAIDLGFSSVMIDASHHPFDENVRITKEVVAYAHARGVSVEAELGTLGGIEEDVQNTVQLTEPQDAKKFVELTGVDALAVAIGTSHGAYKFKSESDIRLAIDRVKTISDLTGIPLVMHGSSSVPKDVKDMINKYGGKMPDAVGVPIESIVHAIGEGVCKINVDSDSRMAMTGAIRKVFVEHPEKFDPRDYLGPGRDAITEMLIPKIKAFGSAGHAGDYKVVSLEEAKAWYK
Sequence of UniProt O75604 (O75604 whole entry, looked up): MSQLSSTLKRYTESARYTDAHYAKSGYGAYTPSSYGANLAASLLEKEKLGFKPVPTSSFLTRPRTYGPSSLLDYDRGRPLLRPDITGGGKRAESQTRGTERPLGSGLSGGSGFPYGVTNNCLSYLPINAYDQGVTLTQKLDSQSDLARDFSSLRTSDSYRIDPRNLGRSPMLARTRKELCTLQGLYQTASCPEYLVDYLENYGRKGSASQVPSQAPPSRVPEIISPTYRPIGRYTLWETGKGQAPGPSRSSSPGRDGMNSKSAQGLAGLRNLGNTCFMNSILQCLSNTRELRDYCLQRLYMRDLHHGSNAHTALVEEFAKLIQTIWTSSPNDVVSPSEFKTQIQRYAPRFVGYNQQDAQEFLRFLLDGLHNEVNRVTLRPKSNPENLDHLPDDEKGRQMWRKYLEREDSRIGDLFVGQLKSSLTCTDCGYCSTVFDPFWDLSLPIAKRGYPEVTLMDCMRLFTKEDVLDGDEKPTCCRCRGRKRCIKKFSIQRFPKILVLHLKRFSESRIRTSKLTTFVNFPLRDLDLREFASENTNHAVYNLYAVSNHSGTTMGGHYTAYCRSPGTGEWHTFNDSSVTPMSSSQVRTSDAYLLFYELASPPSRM
Sequence of UniProt P00883 (P00883 whole entry, looked up): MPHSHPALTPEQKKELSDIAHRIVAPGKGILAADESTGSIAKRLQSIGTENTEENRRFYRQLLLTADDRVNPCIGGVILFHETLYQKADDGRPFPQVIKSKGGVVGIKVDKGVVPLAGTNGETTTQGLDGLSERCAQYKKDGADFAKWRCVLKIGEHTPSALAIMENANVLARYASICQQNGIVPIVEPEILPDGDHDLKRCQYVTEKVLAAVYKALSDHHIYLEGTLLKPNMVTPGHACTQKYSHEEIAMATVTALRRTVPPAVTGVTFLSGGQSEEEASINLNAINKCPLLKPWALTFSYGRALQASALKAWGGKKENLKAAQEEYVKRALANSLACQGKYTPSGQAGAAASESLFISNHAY

## C/C=C(/C)C(=O)O[C@H]1C(C)=C2[C@H]([C@@H]1OC(=O)CCCCCCC)[C@@](C)(OC(C)=O)C[C@H](OC(=O)CCC)[C@@]1(O)[C@H]2OC(=O)[C@@]1(C)O
[1]
  Potency: active: 0.0037 µM
[2]
  Potency: active: 0.0083 µM
[3]
  Potency: inconclusive: 21.2 µM [inhibitor, single point]

## O=C1NCN(c2ccccc2)C12CCN(CC1COc3ccccc3O1)CC2 (stereo not given)
[2]
  Potency: inactive

## Cc1ncc(CNC(=O)N(CCCl)N=O)c(N)n1
[2]
  Potency: inactive

## O=C(O)c1nn(Cc2ccc(Cl)cc2Cl)c2ccccc12
[1]
  Potency: inactive

## Oc1ccc2c3c1O[C@H]1c4[nH]c5c(c4C[C@@]4(O)[C@@H](C2)N(CC2CC2)CC[C@]314)C[C@@]1(O)[C@H]2Cc3ccc(O)c4c3[C@@]1(CCN2CC1CC1)[C@H]5O4
[2]
  Potency: inactive

## CN1CC[C@@]2(C)c3cc(O)ccc3N(C)C12 (stereo not given in full)
[2]
  Potency: inconclusive: 16.5 µM [falling, single point]
[4]
  Potency: inconclusive: 15.8 µM [inhibitor, single point]
[5]
  Potency: inconclusive: 20 µM [activator, single point]

## CN[C@@H]1C[C@@H](c2ccc(Cl)c(Cl)c2)c2ccccc21
[1]
  Potency: inconclusive: 18.5 µM [falling, single point]
[2]
  Potency: inconclusive: 14.7 µM [falling, single point]
[5]
  Potency: inconclusive: 11.2 µM [activator, single point]

## O=c1c2ccccc2[se]n1-c1ccccc1
[2]
  Potency: inconclusive: 26.1 µM [falling, single point]
[6]
  Potency: active: 20 µM
[7]
  Potency: inconclusive: 50.1 µM [inhibitor, single point]
[8]
  Potency: inconclusive: 39.8 µM [inhibitor, single point]
[9]
  Potency: active: 22.4 µM
[4]
  Potency: inconclusive: 12.6 µM [inhibitor, single point]
[5]
  Potency: inconclusive: 17.8 µM [activator, single point]

## CC[C@@H](CO)NC(=O)[C@@H]1C=C2c3cccc4[nH]cc(c34)C[C@H]2N(C)C1
[1]
  Potency: inactive
[10]
  Potency: inconclusive: 14.7 µM [fluorescent, single point]
[3]
  Potency: inconclusive: 26.7 µM [inhibitor, single point]

## CC[C@@]1(O)C(=O)OCc2c1cc1n(c2=O)Cc2cc3ccccc3nc2-1
[1]
  Potency: active: 0.104 µM
[2]
  Potency: inconclusive: 0.0465 µM [falling, full curve]
[4]
  Potency: inconclusive: 0.0447 µM [inhibitor, full curve]
[5]
  Potency: inconclusive: 0.316 µM [activator, partial curve]

## Cc1cc([C@@H]2CCCN2C)on1
[2]
  Potency: inactive

## c1ccc(CCCN2CCN(CCOC(c3ccccc3)c3ccccc3)CC2)cc1
[1]
  Potency: inconclusive: 14.7 µM [falling, single point]
[2]
  Potency: inconclusive: 14.7 µM [falling, partial curve, poor fit]
[4]
  Potency: inconclusive: 35.5 µM [inhibitor, single point]
[5]
  Potency: inconclusive: 10 µM [activator, partial curve]

## CC(C)c1cccc(C(C)C)c1O
[2]
  Potency: inactive
[3]
  Potency: inactive

## CC(Cc1ccc(O)cc1)NCC(O)c1cc(O)cc(O)c1 (stereo not given)
[2]
  Potency: inactive

## O=c1[nH]c2ccccc2n1CCCN1CCC(n2c(=O)[nH]c3cc(Cl)ccc32)CC1
[1]
  Potency: inactive
[2]
  Potency: inconclusive: 16.5 µM [falling, single point]
[4]
  Potency: inactive
[5]
  Potency: inconclusive: 12.6 µM [activator, single point]

## COc1ccccc1N1CCNCC1
[2]
  Potency: inactive

## Cc1cc2c(C(C)C)c(O)c(O)c(C=O)c2c(O)c1-c1c(C)cc2c(C(C)C)c(O)c(O)c(C=O)c2c1O
[1]
  Potency: active: 14.7 µM
[2]
  Potency: inconclusive: 26.1 µM [falling, single point]
[10]
  Potency: active: 5.21 µM

## Fc1ccc(C(OCCN2CCN(CCCc3ccccc3)CC2)c2ccc(F)cc2)cc1
[1]
  Potency: inconclusive: 18.5 µM [falling, partial curve, poor fit]
[2]
  Potency: active: 18.5 µM
[4]
  Potency: inconclusive: 12.6 µM [inhibitor, single point]
[5]
  Potency: active: 12.6 µM

## C=C(C)[C@H]1Cc2c(ccc3c2O[C@@H]2COc4cc(OC)c(OC)cc4[C@@H]2C3=O)O1
[1]
  Potency: active: 0.0465 µM
[2]
  Potency: active: 0.0585 µM
[4]
  Potency: active: 5.62 µM
[5]
  Potency: active: 1.41 µM

## COc1cc(C(O)CN)ccc1O (stereo not given)
[2]
  Potency: inactive

## Cc1c(C(=O)c2cccc3ccccc23)c2cccc3c2n1[C@H](CN1CCOCC1)CO3
[1]
  Potency: active: 18.5 µM
[2]
  Potency: inconclusive: 16.5 µM [falling, single point]
[5]
  Potency: inconclusive: 7.08 µM [activator, partial curve]

## CN(N=O)c1cc(O)ccc1O
[2]
  Potency: inconclusive: 3.69 µM [falling, full curve, poor fit]

## CCCCC/C=C\C/C=C\C/C=C\C/C=C\CCCC(=O)NCC(=O)O
[2]
  Potency: inactive
[10]
  Potency: inconclusive: 16.5 µM [falling, single point]

## c1ccc2c(c1)OCC(C1=NCCN1)O2 (stereo not given)
[1]
  Potency: active: 6.56 µM
[2]
  Potency: active: 4.65 µM
[4]
  Potency: active: 20 µM
[5]
  Potency: active: 7.94 µM

## NN=C(N)N
[2]
  Potency: inactive
[4]
  Potency: inactive

## CCC1(C2=NCCN2)Cc2ccccc2O1 (stereo not given)
[2]
  Potency: inactive

## O=c1[nH]c2ccccc2n1C1CCN(CCCC(c2ccc(F)cc2)c2ccc(F)cc2)CC1
[2]
  Potency: inconclusive: 16.5 µM [falling, single point]
[4]
  Potency: inconclusive: 12.6 µM [inhibitor, single point]
[5]
  Potency: inconclusive: 15.8 µM [activator, single point]
[3]
  Potency: inconclusive: 23.8 µM [inhibitor, single point]

## CN(C)C(=S)SSC(=S)N(C)C
[6]
  Potency: active: 14.1 µM
[8]
  Potency: inconclusive: 35.5 µM [inhibitor, partial curve]
[9]
  Potency: inconclusive: 63.1 µM [inhibitor, partial curve, poor fit]

## COc1ccc(CN2CCNCC2)c(OC)c1OC
[8]
  Potency: inactive

## COc1ccc2c(c[n+](C)c3c4cc5c(cc4ccc23)OCO5)c1OC
[3]
  Potency: active: 26.7 µM

## NC(N)=Nc1ccc2[nH]c3c(c2c1)C[C@@]1(O)[C@H]2Cc4ccc(O)c5c4[C@@]1(CCN2CC1CC1)[C@H]3O5
[3]
  Potency: inconclusive: 29.9 µM [inhibitor, single point]
